Results published in PubChem BioAssay AID1963576 (National Center for Advancing Translational Sciences (NCATS), 2024).
Out of some 46,000 compounds screened, about 60 (0.1%) were called active. Roughly 3% stayed inconclusive and do not appear here. Calls come from the whole dose curve; as a rule, active = well fitted inhibition curve with a large enough effect; inconclusive = small, poorly fitted or top-dose-only effect; inactive = no such curve, though single readings can be large or run the other way. The list shows a part of the results.

test: Primary qHTS assay for Inhibitors of ovarian cancer metastasis using an organotypic tumor microenvironment (TME) model.; note: nearly all actives have a fitted effect of over 65% in size;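 for activity change, negative = inhibition: plate controls were DMSO wells for no effect and tomatine positive control wells for full effect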; conditions: SKOV3ip1-GFP adhesion/invasion on 3D omental model, fluorescence; series mostly up to 45.8 µM; activity change, negative = inhibition: at the top concentration
Method in brief: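 qHTS, 4-pt dose (0.36-46 umol/L); SKOV3ip1-GFP, 1,200 cells/well, no FBS; primary omental fibroblast/mesothelial co-culture 48 h pre-grown; 2 h RT + 16 h 37 C; PBS wash, 4% PFA; GFP count 488/509 nm.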

Activity change, negative = inhibition, inactive:
Cc1ccc2sc(-c3ccc(N)cc3)nc2c1 3.73%, O=C(Nc1ccc2nc(SCC(=O)N3CCc4ccccc43)sc2c1)c1ccccc1 -5.99%, Cc1cc(C)c(NC(=O)CN2C(=O)c3cccnc3Sc3ccccc32)c(C)c1 3.73%, O=C(Nc1ccccc1F)c1ccc(Cn2nc(N3CCN(c4ccccc4)CC3)ccc2=O)o1 4.3%, COc1cc(OC)c(NC(=O)N2CCc3c([nH]c4ccccc34)C2c2ccccc2F)cc1Cl (stereo unspecified) 10.6%, COc1cc(OC)c(N(C)C(=O)c2c(C)oc3ncnc(N4CCCCC4)c23)cc1Cl 0.955%, CCOc1ccc(CCNC(=O)c2nnc(Cc3ccc(Cl)cc3Cl)o2)cc1OCC -25.1%, O=S(=O)(c1ccc(F)cc1)N(CC(O)Cn1c2ccccc2c2ccccc21)c1ccccc1 (stereo unspecified) -15.4%, COc1ccc(C(=O)NCC(c2ccc3c(c2)OCO3)N2CCN(C)CC2)cc1 (stereo unspecified) 4.04%, COc1ccc(CNC(=O)C2CCCN(S(=O)(=O)c3ccc4c(ccn4C)c3)C2)c(OC)c1 (stereo unspecified) 0.329%, Cc1ccc2c(=O)cc(C(=O)NCc3ccccc3)oc2c1 8.15%, CCOC(=O)c1cc2c(=O)n3ccccc3nc2n(CC2CCCO2)c1=NC(=O)c1ccccc1C (stereo unspecified) 0.627%, NC(=O)c1cnc(-c2ccc(C3(N)CCC3)cc2)c(-c2ccccc2)c1 1.29%, COc1cccc(C(=O)N2CCCCC2CCN2CCCCC2)c1 (stereo unspecified) -5.38%, CN1CCCN(C(=O)c2cccc(-c3ccc(C=C4C(=O)Nc5ccc(Cl)cc54)o3)c2)CC1 17.7%, Cc1ccc(C)c(N2CCN(C(=O)Cc3c(C(=O)O)c(C)cn3C)CC2)c1 1.67%, CCc1ccc(-n2nc(CO)c(C(=O)NCCc3ccccc3)n2)cc1 -7.13%, Cc1cccc(Cn2c(CNS(=O)(=O)c3ccc(C(C)C)cc3)nc3cccnc32)c1 -1.27%, COc1ccc(OC)c(NC(=O)c2cccc3c2C(=O)N(C2CCCCC2)C3)c1 4.46%, Cc1oc(-c2ccccc2F)nc1CS(=O)CC(=O)NC(C)C (stereo unspecified) -8.43%, CCOC(=O)c1cc(S(=O)(=O)Nc2c(C)cc(C)cc2C)[nH]n1 -7.81%, C=CCc1cccc2cc(-c3nc4ccc(C(=O)O)cc4[nH]3)c(=O)oc12 -3.56%, O=C(Nc1ccccc1Br)c1cc(S(=O)(=O)NC2CCCCC2)ccc1F -5.7%, CCOc1ccc(NC(=O)Nc2cc3c(cc2N2CCCCC2)n(C)c(=O)n3C)cc1 8.56%, O=C(NCc1ccc(F)cc1)c1nnc(Cc2cccc(F)c2)o1 -0.245%, COc1ccc(-c2noc(-c3cc(-c4ccc(F)cc4)n[nH]3)n2)cc1 -11.7%, Cc1ccc(C)c(NC(=O)C2CCCN2S(=O)(=O)c2ccc3c(c2)n(C)c(=O)c(=O)n3C)c1 (stereo unspecified) 12.2%, CCOCCCNC(=O)c1ccc(Cn2c(=O)c3cccn3c3cccnc32)cc1 -9.4%, CC(=O)NC(C)c1nc2ccccc2n1Cc1ccccc1Cl (stereo unspecified) 0.969%, Cn1c2cc(S(C)=O)sc2c2cnn(Cc3cccc(N)c3)c(=O)c21 (stereo unspecified) 2.01%, COc1ccc(C2=NC(C)(C)N(CC(=O)Nc3cc(OC)cc(OC)c3)C2=O)cc1 -4.95%, Cc1nc2ccc(S(=O)(=O)NC(CC(C)C)C(=O)NCc3ccc(Cl)cc3)cc2s1 (stereo unspecified) 2.53%, Cc1c(C(=O)OC2CCCCCC2)[nH]c2c1C(=O)CC(c1ccccc1)C2 (stereo unspecified) -0.539%, CCCOc1ccc(-c2nc3ccc(Br)cc3c(=O)o2)cc1 19.5%, CCOc1ccc(S(=O)(=O)NCc2nc3cccnc3n2Cc2ccccc2OC)cc1 -5.32%, CC1=C(C(=O)N2CCN(c3ccc(Cl)cc3)CC2)C2(CCC(C)CC2)OC1=O (stereo unspecified) -3.38%, O=C(COc1ccc(Cl)cc1)NCC(c1cccs1)S(=O)(=O)c1ccc(F)cc1 (stereo unspecified) 1.88%, CCOC(=O)c1cc(-c2ccccc2)n(CC(=O)NCc2ccccc2)c1C 8.59%, COc1ccc(-c2nc3sc(CCNC(=O)C(=O)Nc4ccc(C)c(C)c4)c(C)n3n2)cc1 1.69%, CCOc1ccccc1CNC(=O)c1cc2c(=O)n(Cc3ccco3)ccc2nc1C -21.6%, CCOc1ccc(-c2nonc2NC(=O)c2ccco2)cc1OCC -3.07%

outcome, inactive:
O=C(CCC(=O)N1CC2CCCN2c2ccccc21)NCc1ccc(F)cc1 (stereo unspecified), CCc1cc(C(=O)Nc2c(C)nn(Cc3ccccc3Cl)c2C)no1, COc1ccc(NC(C)=O)cc1NC(=O)C1(c2cccs2)CCOCC1, CCOc1ccc2nc(N3CCN(C(=O)c4ccco4)CC3)sc2c1, CCn1cc(/C=C(\NC(=O)c2ccc(C)cc2)C(=O)NCCCn2ccnc2)c2ccccc21, Cc1cc(C)cc(-n2c(SCC(=O)N3CCC(C)CC3)nc3c([nH]c4ccccc43)c2=O)c1, O=C(CSc1nc2c([nH]c3ccccc32)c(=O)n1-c1ccc(F)cc1)N1CCc2ccccc21, Cc1ccc2nc(-c3ccc(NC(=O)COc4ccccc4C(C)(C)C)cc3)sc2c1, COc1cc(NC(=O)CN2CCCN(S(=O)(=O)c3ccc(F)cc3)CC2)cc(OC)c1, COc1cc(-c2noc(-c3ccc(NC4CCCC4)c([N+](=O)[O-])c3)n2)cc(OC)c1OC, CCOC(=O)CCCCN(Cc1ccccc1F)S(=O)(=O)c1ccc(F)c(C(=O)Nc2cc(Cl)cc(Cl)c2)c1, COc1ccc(C2C(C(=O)Nc3cccnc3)=C(C)Nc3nc(SCc4ccccc4)nn32)cc1 (stereo unspecified), CCOC(=O)N1CCN(c2ncc3c(n2)CC(c2ccc(Cl)cc2)CC3=O)CC1 (stereo unspecified), Cc1ccc(-c2cc3nccc(-c4cc([N+](=O)[O-])ccc4O)n3n2)cc1, CN(c1ccc(F)cc1)S(=O)(=O)N1CCCC(C(=O)NCCc2ccccc2)C1 (stereo unspecified), CCCCNC(=O)CSc1nc2n[nH]c(C)c2c(=N)n1-c1cccc(C)c1, CCOC(=O)C1CCN(C(=O)c2ccc3c(c2)sc2nc(-c4ccc(OC)cc4)cn23)CC1, CCCCN(CC)CCCNC(=O)c1cc2c(=O)oc3ccc(C)cc3c2s1, O=C(Cn1c(=O)n(Cc2ccccc2)c(=O)c2sc3ccccc3c21)Nc1ccc(F)cc1, Cc1ccc(C)c(Cn2c(=O)n(CCCC(=O)NCCc3ccc(Cl)cc3)c(=O)c3ccccc32)c1
